Source: paper PMC6919601, “Identification of Plasmodium dipeptidyl aminopeptidase allosteric inhibitors by high throughput screening” (PLoS ONE, 2019)
Hit rate of the full screen: of about 110,000 compounds, about 230 (0.21%) showed an effect of 50% or more. This is one part of the list.

biological target: DPAP1 (Plasmodium falciparum, UniProt Q8IIJ9); test: primary screen, percent inhibition; read by cleavage of a fluorogenic dipeptide substrate; higher = more effect of the substance; parameters: species or system P. falciparum D10 trophozoite lysates; single well
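Note: 30 min substrate incubation versus DMSO and 10 µM JCP410 controls.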

DPAP1, sequence (Q8IIJ9 whole entry, looked up): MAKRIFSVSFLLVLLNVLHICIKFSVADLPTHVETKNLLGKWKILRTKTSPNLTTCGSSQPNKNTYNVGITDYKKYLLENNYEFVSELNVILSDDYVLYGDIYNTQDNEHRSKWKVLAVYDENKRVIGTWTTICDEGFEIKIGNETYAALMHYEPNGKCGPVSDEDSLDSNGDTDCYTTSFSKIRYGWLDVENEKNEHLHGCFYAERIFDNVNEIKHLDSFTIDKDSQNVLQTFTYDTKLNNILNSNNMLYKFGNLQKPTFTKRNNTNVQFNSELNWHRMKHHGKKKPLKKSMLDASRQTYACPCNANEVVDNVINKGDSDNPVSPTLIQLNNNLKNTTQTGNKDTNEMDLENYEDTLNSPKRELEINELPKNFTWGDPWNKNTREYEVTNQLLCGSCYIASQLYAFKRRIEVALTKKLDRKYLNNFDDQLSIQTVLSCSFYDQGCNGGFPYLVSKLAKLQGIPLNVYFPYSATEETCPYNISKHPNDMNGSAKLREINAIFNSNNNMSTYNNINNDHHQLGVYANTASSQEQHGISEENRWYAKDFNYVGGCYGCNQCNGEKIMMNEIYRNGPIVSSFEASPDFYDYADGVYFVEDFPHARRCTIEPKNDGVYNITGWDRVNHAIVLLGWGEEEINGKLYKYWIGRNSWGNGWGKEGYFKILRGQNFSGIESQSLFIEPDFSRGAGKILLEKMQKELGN

Row | SMILES | % Inhibition @ 10 uM [%]
1 | CC1CCC(NC(=O)CNC(=S)N2CC3CC(C2)c2cccc(=O)n2C3)CC1 (stereo not shown) | -5.92
2 | COc1ccc(CCN2CC(C(=O)NCc3ccco3)CC2=O)cc1OC (stereo not shown) | -3.58
3 | O=C(c1ccccc1)c1cc2c3c(ccc4c3c1NC=N4)CC2 | 7.18
4 | N/C(=C\C(=O)C(F)(F)F)c1ccc(Cl)cc1 | 4.41
5 | O=C(NC1CCN(c2ncccn2)CC1)c1c(F)cccc1F | -1.11
6 | O=C1Sc2ccc(S(=O)(=O)Nc3ccc(O)c4ccccc34)c3cccc1c23 | 3.29
7 | CCC1(C)N(O)C(C)(C)C(c2ccccc2)=[N+]1[O-] (stereo not shown) | 3.47
8 | CN(CCc1ccccn1)Cc1ccc(Br)o1 | -8.75
9 | Cc1sc(NC(=O)c2ccccc2F)c(C#N)c1C | 2.38
10 | O=C1NC(=S)S/C1=C\c1c(NCCO)nc2ccccn2c1=O | 3.27
11 | N=C1/C(=C\c2ccc(-c3ccc(Cl)cc3)o2)C(=O)N=C2SC(N3CCCC3)=NN12 | 1.72
12 | O=C(Nc1ccccc1)N1CCN(C(=O)Nc2ccccc2)CC1 | -2.3
13 | COc1ccc(CNC(=O)c2cnn3c2NC(c2ccc(C)cc2)CC3C(F)F)cc1OC (stereo not shown) | 7.16
14 | Nc1no[n+]([O-])c1C(=O)NCc1nc2ccccc2[nH]1 | -2.28
15 | O=C(CN(c1ccc2c(c1)OCCO2)S(=O)(=O)c1ccccc1)NCC1CCCO1 (stereo not shown) | -13.8
16 | CN(CCC#N)CC(=O)Nc1cccnc1Cl | -2.19
17 | O=C(c1nc2ccccc2o1)C(NC(=O)[C@H](CS(=O)(=O)Cc1ccccc1)NC(=O)N1CCOCC1)c1cccs1 (stereo partly shown) | -3.04
18 | Nc1ccc(C(=O)Nc2ccc(NC(=O)c3ccc(N)cc3)cc2)cc1 | -4.26
19 | Cc1cc(C)nc(/N=C(\N)Nc2ccc(Cl)cc2Cl)n1 | 2.65
20 | Cc1c2cnn(CC(=O)NC(C)c3ccc4c(c3)OCCO4)c(=O)c2c(C)n1Cc1ccccc1 (stereo not shown) | 5.91
21 | COc1cccc2c(O)c(NC(=O)NC3CCCCCC3)cnc12 | 0.401
22 | CC1=CC2=NC(=O)/C(=C\c3ccc(F)cc3)C(=N)N2O1 | 2
23 | O=C(c1ccco1)N1CCCCCC1 | -3.82
24 | c1ccc(OCCCN2CCCC2)cc1 | -0.546
25 | Cc1ccc(C(=O)c2sc3nc4c(cc3c2N)CCCC4)cc1 | -4.94

Row | SMILES | % Inhibition @ 10 uM [%]
26 | COc1ccc(NC(=O)COc2cccc(C3(C)NC(=O)NC3=O)c2)cc1 (stereo not shown) | 4.42
27 | CCc1cc(C(=O)OC)c(NC(=O)CC2S/C(=N\C)N(C)C2=O)s1 (stereo not shown) | -1.36
28 | COc1ccc2ccccc2c1/C=C(\C#N)C(=O)NCc1cccc(Cl)c1 | 1.42
29 | CCCCc1ccc(NC(=O)c2ccc([N+](=O)[O-])o2)cc1 | -5.65
30 | COc1cc2c(cc1OC)C(C)N(S(=O)(=O)c1ccccc1)CC2 (stereo not shown) | -1.24
31 | O=S(=O)(NCc1ccc2c(c1)OCO2)c1ccccc1F | 1.69
32 | Cc1cc(C)cc(OCC(=O)Nc2ccc(S(=O)(=O)Nc3cc(C)on3)cc2)c1 | -1.44
33 | CCc1nn(CC(=O)NC(CC)Cc2ccccc2)c(=O)c2cc3sccc3n12 (stereo not shown) | -3.35
34 | COc1ccc(C2=C(c3ccc(OC)cc3)OCCO2)cc1 | -3.09
35 | CC(=O)c1ccc(N2CCN(Cc3ccccc3)CC2)cc1 | 1.38
36 | Cc1ccc(S(=O)(=O)N2CCC(C(=O)NCCO)CC2)cc1 | -1.51
37 | CC1C2CC(CC1(C)C)N(C(=O)Nc1ccc3nccnc3c1)C2 (stereo not shown) | -6.7
38 | COc1cccc(C2C3=C(O)CC(C)(C)CC3=Nc3ccccc3N2C(=O)C(F)(F)F)c1 (stereo not shown) | 3.05
39 | COc1ccc(-c2nc3c(c(SCC(N)=O)n2)Cc2c(CO)cnc(C)c2O3)cc1 | 2.75
40 | O=C(CCCCCN1C(=O)c2ccccc2C1=O)N1CCCCC1 | 2.45
41 | CC1(C)CC(=O)c2sc(NC(=O)c3ccc(N4C(=O)CCC4=O)cc3)nc2C1 | -0.171
42 | c1coc(CNC2CN3CCC2CC3)c1 (stereo not shown) | 1.37
43 | COc1ccc(C(CC(=O)NCc2ccc3c(c2)OCO3)N2Cc3ccccc3C2=O)cc1 (stereo not shown) | -5.92
44 | CCOc1cc(C2CC(=O)Nc3nc(SC)nc(O)c32)ccc1OCC(N)=O (stereo not shown) | -4.71
45 | CC(=O)N1CCC(=O)N(C(C)=O)c2ccccc21 | 1.43
46 | O=[N+]([O-])c1cc(C(F)(F)F)ccc1NS(=O)(=O)c1ccccc1 | -1.77
47 | CCN1C(=O)C2(C(C#N)=C(N)Oc3[nH]nc(C(C)C)c32)c2ccccc21 (stereo not shown) | 5.35
48 | Cc1c(-c2nsc(NC(=O)c3cccs3)n2)nnn1-c1ccccc1C(F)(F)F | -3.39
49 | N#Cc1cnn(-c2cc(Oc3ccccc3)ncn2)c1N | -0.105
50 | C#CCN1C(=O)S/C(=C/c2ccc(O)c(OCC)c2)C1=O | 0.9

Row | SMILES | % Inhibition @ 10 uM [%]
51 | O=C(CCN1C(=O)C2C3CCC(C3)C2C1=O)Nc1ccc(Cl)cc1C(=O)c1ccccc1 (stereo not shown) | -1.61
52 | CCOc1ccc(C(=O)C2=C(O)C(=O)N(c3ccccn3)C2c2ccc(C)cc2)c(C)c1 (stereo not shown) | -5.63
53 | CC(NC(=O)C(=O)NCCN(C)C)C(c1cccs1)N1CCN(Cc2ccccc2)CC1 (stereo not shown) | 3.96
54 | O=C(NC1CCCCCC1)c1cnn(-c2ccccc2)c1-n1cccc1 | -1.58
55 | CCOC(=O)c1c(C)c(-c2ccccc2)n(CC(=O)NCC2CCCO2)c1C (stereo not shown) | 1.72
56 | Cc1cc(OCC(=O)Nc2ccc(S(=O)(=O)NC(C)(C)C)cc2)ccc1Cl | -3.65
57 | CCOC(=O)c1sc(C)c(C#N)c1N | 3.05
58 | Cc1ccc(C2=CC(c3cccc(F)c3)n3ncnc3N2)cc1 (stereo not shown) | 4.86
59 | Cc1ccc(C(C)C)c(OCC(=O)Nc2ccc(S(=O)(=O)N3CCC(C)CC3)cc2)c1 | -3.49
60 | Cc1ccc(C)c(NC(=O)c2ccc(-c3ccccc3)cc2)c1 | -4.04
61 | Cc1ccc(CN(CC(=O)Nc2ccc(C)cc2)S(=O)(=O)c2ccccc2)cc1 | 3.89
62 | O=Cc1c[nH]c2ccc(S(=O)(=O)N3CCC(Cc4ccccc4)CC3)cc12 | 5.47
63 | O=C(Nc1cc(N2CCOCC2)ncn1)NC1(C(F)(F)F)Oc2ccc(Cl)cc2O1 (stereo not shown) | 0.889
64 | CCC1(CC)C(=O)NC(=O)N(Cc2ccccc2)C1=O | 1.7
65 | C(=C\c1ccccc1)/CN1CCN(CCc2ccccc2)CC1 | 1.74
66 | O=S(=O)(c1ccccc1)N1CCN(c2cccc(Cl)c2)CC1 | -2.63
67 | O=[N+]([O-])c1cc(CN2CCSCC2)ccc1O | 3.15
68 | COc1ccc(C(CC(=O)c2ccccc2)S(=O)(=O)c2ccccc2)cc1 (stereo not shown) | -4.74
69 | CCOC(=O)c1sc(NC(=O)Cn2nc(C(F)(F)F)cc2C)c(C(=O)OCC)c1C | 10.2
70 | Cc1[nH]c2ccccc2c1C(c1cccnc1)N1CCOCC1 (stereo not shown) | -5.35
71 | COc1cccc(-c2cc(N)n(S(=O)(=O)c3ccc(C)cc3)n2)c1 | -2.88
72 | Cc1ccc2onc(CNC(=O)N3CCCCC3C)c2c1 (stereo not shown) | 0.568
73 | COc1ccc(NC(=O)c2sccc2C)c(OC)c1 | -13.8
74 | CCCCCCn1c(=O)c(C(=O)Nc2ccc(F)cc2)c(O)c2ccccc21 | 3.05
75 | Cc1ccc(C(=O)CN2C(C(=O)c3ccccc3)=C(O)c3ccccc3S2(=O)=O)c(C)c1 | 0.472

Row | SMILES | % Inhibition @ 10 uM [%]
76 | COC(=O)c1cc2sc(C)cc2n1CC(=O)N(C)C1CCCCC1 | -6.95
77 | CC1=CCC2C(=O)N(c3cc(C)on3)C(=O)C2C1 (stereo not shown) | -1.33
78 | N#Cc1ccccc1NC(=O)Nc1ccc(Cl)cc1 | 0.132
79 | Fc1ccc(C2Nc3ccc(F)cc3C3C=CCC32)cc1 (stereo not shown) | 16.5
80 | CC(=O)N1N=C(c2ccc(O)cc2)CC1c1ccc(Cl)cc1 (stereo not shown) | -1.45
81 | Cc1ccc(/C=C(\NC(=O)c2ccccc2)C(=O)Nc2ccc(Br)cc2)o1 | -3.46
82 | COc1ccc(NC(=O)c2ccc(-c3ccccc3)cc2)c([N+](=O)[O-])c1 | -1.29
83 | COC(=O)c1cc2oc(C)cc2n1Cc1ccccc1C | -5.72
84 | C=CCN1C(=O)NC(=O)/C(=C\c2ccc3c(c2)OCO3)C1=O | -2
85 | CN1CCN(C(=O)CCCn2sc3ccccc3c2=O)CC1 | 2.21
86 | O=C1C(c2[nH]c3ccccc3c2O)=Nc2ccccc21 | -0.864
87 | COc1ccc2[nH]c(C(=O)N3CCOCC3)cc2c1 | 3.65
88 | COc1ccc(C2CC(c3ccccc3)=NN2S(=O)(=O)c2ccc(C)cc2)cc1 (stereo not shown) | -2.72
89 | Cn1ncc(Cl)c1C(=O)NCc1cc(C(C)(C)C)[nH]n1 | -2.45
90 | C=CCC1NC2(CCCC2)Cc2cc(OC)c(OC)cc21 (stereo not shown) | 3.44
91 | O=C(c1cnn2c(C(F)(F)F)cc(-c3ccc(Br)cc3)nc12)N1CCCCCC1 | -0.142
92 | CCCCCCNC(=O)CC(NS(=O)(=O)c1ccc(F)cc1)c1ccc(OC)cc1 (stereo not shown) | -2.14
93 | CCCC(=O)Nc1[nH]nc2nc(C)cc(C)c12 | 2.18
94 | Cc1cc(N2CCNCC2)n2c(nc3ccccc32)c1C#N | -4.32
95 | CC1CC(C)CN(C(=O)c2ccc(-c3ccccc3)s2)C1 (stereo not shown) | -2.17
96 | Cc1nc2c(-c3ccc(F)cc3)c(C)nn2c(C)c1CC(=O)N1CCOCC1 | -6.09
97 | COC(=O)c1sccc1NC(=O)c1cc2c(s1)-c1ccccc1S(=O)(=O)C2 | 2.57
98 | CCCCN(C)C(=O)c1sc2ncn(CC)c(=O)c2c1C | 4.8
99 | O=C(CCCn1c2ccccc2c2cnnc(O)c21)NCc1ccccn1 | 1.38
100 | CCN(CC)CCCNC(=O)Cn1ncn2c(cc3sc(C)cc32)c1=O | 4.84
